Screen size: about 310,000 compounds; about 18,000 (5.8%) were called active. Inconclusive means that the source gave no clear call. Such entries were picked first, then a sample of the others. Calls follow the shape of the dose curve; as a rule, active = well fitted inhibition curve with a large enough effect; inconclusive = small, poorly fitted or top-dose-only effect, or another doubt; inactive = no such curve, though single readings can be large or run the other way. No potency is given beside an inconclusive call; the fits are too rough.
Test: Primary qHTS for delayed death inhibitors of the malarial parasite plastid, 48 hour incubation
Conditions: P. falciparum luciferase growth in erythrocytes; series mostly up to 28.7 µM; activity change, negative = inhibition: at the top concentration
In short: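 Parasite viability was followed by luminescence of a genomically integrated firefly luciferase. Cultures held 0.1% parasitemia at 2% hematocrit (final), incubated under 5% CO2 at 37 C.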
% is scaled to controls: 0 for no effect and ±100 for the full control effect; potency is read from the fitted curve at half-maximal effect; tags tell the direction and shape of the fitted curve.

Compound	activity change, negative = inhibition	Potency
Cc1cc(CNC(=O)Cn2nc(C)c([N+](=O)[O-])c2C)c2ccccc2n1	inactive: -15.9%	
Cc1cccc(C(=O)OC2CCOC2=O)c1C (configuration not stated)	inactive: 40.7%	
Cc1ccc(O)c(CNc2cccc3cccnc23)c1		inconclusive [inhibitor, partial curve, poor fit]
COCCn1c(SCc2cnc(-c3ccccc3)s2)nnc1-c1ccncc1		inconclusive [inhibitor, single point]
COc1ccc(CCNC(=O)C2CCN(C(=O)c3ccc(Cl)cc3)CC2)cc1		inconclusive [inhibitor, single point]
Nc1nc(Br)c2ccccc2c1-c1ccc(F)cc1		inconclusive [inhibitor, single point]
Cc1c(NC(=O)c2ccc(N(C)S(=O)(=O)c3ccccc3)cc2)c(=O)n(-c2ccccc2)n1C		inconclusive [inhibitor, full curve, poor fit]
Cc1ccccc1OCCCCCNCCO	inactive: -7.43%	
O=C1c2cnc3nc(SCc4ccccc4)nn3c2CC2c3ccccc3CCN12 (configuration not stated)		inconclusive [inhibitor, partial curve, poor fit]
COc1cc(C(=O)N2CCN(C(=O)c3cccc4ccccc34)CC2)cc(OC)c1OC		inconclusive [inhibitor, partial curve]
CCNC(=O)n1cc(-n2cncn2)c(-c2ccc(Cl)cc2)n1		inconclusive [inhibitor, partial curve, poor fit]
CN(C)CCNc1ncnc2c1sc1nc(N3CCOCC3)c3c(c12)CC(C)(C)SC3		inconclusive [inhibitor, single point]
COc1ccccc1C(=O)NNC(=O)c1cccc([N+](=O)[O-])c1	inactive: 122%	
FC(F)(F)c1ccc2c(c1)nnn2C1CCN(Cc2nnnn2Cc2ccccc2)CC1		active: 7.38 µM
CCCNc1nc(Nc2ccc(C)c(Cl)c2)c2cnn(C)c2n1		inconclusive [inhibitor, single point]
Cc1ccccc1OCC(O)CN(Cc1ccccc1O)C1CCCCC1 (configuration not stated)		active: 0.233 µM
COc1cc(/C=C/c2cc[n+](C)cc2)ccc1OCC(=O)Nc1ccccc1		active: 3.7 µM
CCOC(=O)c1ccccc1NC1c2ccccc2C(=O)N1c1ccc(C)cn1 (configuration not stated)	inactive: 120%	
O=C(CSc1nnc(-c2ccco2)n1-c1ccccc1)NCCc1ccccc1		inconclusive [inhibitor, partial curve]
COC(=O)C1=C(c2ccc(OC)c(OC)c2)C[C@@H]2CC[C@H]1N2C(=O)NC1CCCCC1		inconclusive [inhibitor, partial curve, poor fit]
CC(Oc1ccc(Cl)cc1Cl)c1nc(-c2ccc(NC(=O)c3cccnc3)cc2)no1 (configuration not stated)		active: 3.29 µM
O=C(c1ccc(C(F)(F)F)cc1)C1CCCN(C(=O)CCc2ccncc2)C1 (configuration not stated)		inconclusive [inhibitor, single point]
O=C(Nc1ccc(N2CCCCC2)cc1)c1cncc(Br)c1	inactive: 173%	
COCCN(C(=O)CCc1nnc(CCc2c[nH]c3ccccc23)o1)C(C)C		inconclusive [inhibitor, partial curve, poor fit]

Compound	activity change, negative = inhibition	Potency
O=C(CSc1nnc(-c2ccccc2)n1Cc1ccccc1)N1CCOCC1	inactive: 1.01%	
COCCn1c(=S)[nH]c2cc(C(=O)N3CCCC(C)C3)ccc2c1=O (configuration not stated)	inactive: 18.1%	
O=C(CN1C(=O)COc2ccccc21)N(Cc1cccnc1)Cc1ccccc1F		inconclusive [inhibitor, single point]
COc1ccccc1OCC(=O)NC1CC(C)(C)NC(C)(C)C1	inactive: 31.4%	
Cc1ccc(-c2cc(C(=O)N3CCN(C(=O)c4ccco4)CC3)no2)cc1	inactive: -4.52%	
CC(C)(C)C(=O)NC(=S)Nc1sc2c(c1C(N)=O)CCC2	inactive: 49.5%	
O=C(O)Cc1csc(-c2cccc(F)c2)n1	inactive: 33.1%	
O=C(Nc1cc(S(=O)(=O)N2CCCCC2)ccc1Cl)c1ccncc1		inconclusive [inhibitor, single point]
Cn1c(Br)nc2c1c(=O)n(Cc1ccccc1)c(=O)n2C	inactive: -13.9%	
COc1cc(C)c(NC(=O)C(=S)N2CCCC2)cc1C		inconclusive [inhibitor, partial curve, poor fit]
COc1ccccc1CNC(=O)c1nn(C)c2c1CS(=O)(=O)c1ccccc1-2	inactive: -0.663%	
CCC1CCC(NC(=O)Nc2cccc(OC)c2)CC1 (configuration not stated)	inactive: 53%	
Cc1cccc(-n2c(C)cc(C)c(C#N)c2=O)c1	inactive: -7.99%	
Cc1nn(-c2ccccc2)c(Cl)c1C(=O)N(C)CC(=O)Nc1cccc(F)c1		inconclusive [inhibitor, single point]
NC(=O)c1ccsc1NC(=O)C1CCCN1S(=O)(=O)c1ccc(Cl)cc1 (configuration not stated)		inconclusive [inhibitor, single point]
COc1ccc(OC)c(N(CC(=O)Nc2ccccc2)S(=O)(=O)c2ccccc2)c1		inconclusive [inhibitor, single point]
O=C(CCCCCn1c(=S)[nH]c2ccccc2c1=O)NCc1ccc2c(c1)OCO2		inconclusive [inhibitor, single point]
Cn1c(=O)cc(N)n(-c2ccccc2)c1=O	inactive: 19.1%	
Cc1noc(C)c1S(=O)(=O)N1CCC(C(=O)N2CCN(c3ccc(Cl)cc3)CC2)CC1		inconclusive [inhibitor, partial curve]
Cc1ccc(S(=O)(=O)N2CCN(c3ccc(C(F)(F)F)cc3[N+](=O)[O-])CC2)cc1		inconclusive [inhibitor, single point]
Cc1cccc(CCN2CCN=C2Nc2ccccc2)c1		inconclusive [inhibitor, single point]
O=c1onc(-c2ccc(Cl)cc2)n1Cc1ccc(F)cc1	inactive: 53.6%	
CCOC(=O)C1CCN(C(=O)c2cccc(S(=O)(=O)N3CCc4ccccc43)c2)CC1		inconclusive [inhibitor, single point]

Source: PubChem BioAssay AID504832 (National Center for Advancing Translational Sciences (NCATS), 2011)
